A lower IC50 marks a more sensitive line; where the fit passes the top or lowest dose, that dose stands as a limit. AUC, from the same fit, is the share of area under the viability curve across the 256-fold dose range; it is 1 without any effect and falls as sensitivity rises. A top dose marked as inferred was derived from the fitted curves, not read from the paper. For some of these results: An entry number marks a drug with two screens in the source, which often give different values.
Tests used:
Assay in all cases: Viability of human cancer cell lines after 72 h of drug (GDSC screen)
BMS-536924 = compound: Cc1cc(N2CCOCC2)cc2[nH]c(-c3c(NC[C@@H](O)c4cccc(Cl)c4)cc[nH]c3=O)nc12 [BMS-536924]; details: top dose 4 µM; screen: GDSC drug entry 1091; top dose inferred
Procedure: (§1)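 Human cancer cell lines in 384-well plates, medium with 10% serum, drug for 72 h over a 256-fold dose range (nine 2-fold or five 4-fold steps up to the top dose). Adherent lines were fixed and stained with the nucleic acid dye Syto60, suspension lines read with resazurin; signal relative to control wells, capped at 0 and 100%. One two-parameter sigmoid per drug and line, fitted in a mixed model over all curves with the slope shared within a line.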

SB-525334 = compound: Cc1cccc(-c2[nH]c(C(C)(C)C)nc2-c2ccc3nccnc3c2)n1 [SB-525334]; details: top dose 20 µM; top dose inferred
Procedure: as §1

Wee1 inhibitor 681640 = compound: O=C1NC(=O)c2c1c(-c1ccccc1Cl)cc1[nH]c3ccc(O)cc3c21 [Wee1 inhibitor 681640]; details: top dose 2 µM; top dose inferred
Procedure: as §1

BIRB 0796 = compound: Cc1ccc(-n2nc(C(C)(C)C)cc2NC(=O)Nc2ccc(OCCN3CCOCC3)c3ccccc23)cc1 [BIRB 0796]; details: top dose 10 µM; top dose inferred
Procedure: as §1

HG-5-113-01 = compound: CNC(=O)c1ccc(Nc2cc(Nc3ccccc3S(=O)(=O)C(C)C)c3cc[nH]c3n2)nc1 [HG-5-113-01]; details: top dose 10 µM; top dose inferred
Procedure: as §1

Olaparib = compound: O=C(c1cc(Cc2n[nH]c(=O)c3ccccc23)ccc1F)N1CCN(C(=O)C2CC2)CC1 [Olaparib]
Procedure: as §1

Shikonin = compound: CC(C)=CC[C@@H](O)C1=CC(=O)c2c(O)ccc(O)c2C1=O [Shikonin]; details: top dose 16 µM; top dose inferred
Procedure: as §1

VX-702 = compound: NC(=O)c1ccc(N(C(N)=O)c2c(F)cccc2F)nc1-c1ccc(F)cc1F [VX-702]; details: top dose 2 µM; top dose inferred
Procedure: as §1

[1] = top dose 5 µM, screen: GDSC drug entry 1017, top dose inferred
[2] = top dose 10 µM, screen: GDSC drug entry 1495

| Cell Line | AUC (BMS-536924) | IC50 (BMS-536924) [µM] | AUC (SB-525334) | IC50 (SB-525334) [µM] | AUC (Wee1 inhibitor 681640) | IC50 (Wee1 inhibitor 681640) [nM] | AUC (BIRB 0796) | IC50 (BIRB 0796) [µM] | AUC (HG-5-113-01) | IC50 (HG-5-113-01) [µM] | AUC (Olaparib; [1]) | IC50 (Olaparib; [1]) [µM] | AUC (Olaparib; [2]) | IC50 (Olaparib; [2]) [µM] | AUC (Shikonin) | IC50 (Shikonin) [nM] | AUC (VX-702) | IC50 (VX-702) [nM] |
| --- | --- | --- | --- | --- | --- | --- | --- | --- | --- | --- | --- | --- | --- | --- | --- | --- | --- | --- |
| 22RV1 (prostate, adherent) | 0.893 | > 4 | 0.982 | > 20 | 0.958 | > 2000 | 0.953 | > 10 | 0.784 | 5.38 | 0.979 | > 5 | 0.954 | > 10 | 0.669 | 3330 | 0.957 | > 2000 |
| 639-V (bladder, adherent) | 0.967 | > 4 | 0.966 | > 20 | 0.989 | > 2000 | 0.984 | > 10 | 0.829 | 5 | 0.938 | > 5 | 0.923 | > 10 | 0.266 | 245 | 0.981 | > 2000 |
| 8305C (thyroid, adherent) | 0.877 | > 4 | 0.982 | > 20 | 0.932 | > 2000 | 0.969 | > 10 | 0.846 | > 10 | 0.974 | > 5 | 0.952 | > 10 | 0.405 | 505 | 0.981 | > 2000 |
| 8505C (thyroid, adherent) | 0.923 | > 4 | 0.898 | > 20 | 0.979 | > 2000 | 0.887 | > 10 | 0.739 | 3.16 | 0.925 | > 5 | 0.925 | > 10 | 0.714 | 4200 | 0.973 | > 2000 |
| A427 (non-small cell lung carcinoma, adherent) | 0.927 | > 4 | 0.836 | 13.4 | 0.869 | 1880 | 0.984 | > 10 | 0.726 | 2.77 | 0.934 | > 5 | 0.958 | > 10 | 0.199 | 127 | 0.967 | > 2000 |
| A2780 (ovary, semi-adherent) | 0.96 | > 4 | 0.721 | 5.44 | 0.98 | > 2000 | 0.966 | > 10 | 0.736 | 3.02 |  |  |  |  | 0.588 | 1760 | 0.935 | > 2000 |
| AGS (stomach, adherent) |  |  | 0.916 | > 20 | 0.979 | > 2000 | 0.99 | > 10 | 0.585 | 1.04 | 0.978 | > 5 |  |  | 0.338 | 374 | 0.99 | > 2000 |
| AU565 (breast, adherent) | 0.968 | > 4 | 0.888 | > 20 | 0.981 | > 2000 | 0.837 | 7.8 | 0.797 | 5.32 | 0.974 | > 5 |  |  | 0.453 | 733 | 0.982 | > 2000 |
| AsPC-1 (pancreas, adherent) | 0.734 | 1.91 | 0.871 | > 20 | 0.93 | > 2000 | 0.96 | > 10 | 0.842 | > 10 | 0.955 | > 5 | 0.936 | > 10 | 0.507 | 1060 | 0.946 | > 2000 |
| BHT-101 (thyroid, adherent) | 0.852 | 3.25 | 0.984 | > 20 | 0.974 | > 2000 | 0.953 | > 10 | 0.719 | 2.66 | 0.937 | > 5 | 0.924 | > 10 | 0.576 | 1630 | 0.985 | > 2000 |
| BT-20 (breast, adherent) | 0.98 | > 4 | 0.977 | > 20 | 0.939 | > 2000 | 0.984 | > 10 | 0.88 | > 10 |  |  |  |  | 0.611 | 2180 | 0.971 | > 2000 |
| CAPAN-1 (pancreas, adherent) | 0.952 | > 4 | 0.974 | > 20 | 0.987 | > 2000 | 0.828 | 7.13 | 0.821 | 6.66 |  |  |  |  | 0.474 | 844 | 0.974 | > 2000 |
| DoTc2-4510 (cervix, adherent) | 0.957 | > 4 | 0.979 | > 20 | 0.957 | > 2000 | 0.984 | > 10 | 0.82 | 5.35 |  |  |  |  | 0.29 | 265 | 0.974 | > 2000 |
| H290 (mesothelioma, adherent) | 0.964 | > 4 |  |  | 0.983 | > 2000 | 0.958 | > 10 | 0.746 | 2.94 | 0.985 | > 5 | 0.971 | > 10 | 0.477 | 871 | 0.975 | > 2000 |
| HCC1395 (breast, adherent) | 0.955 | > 4 | 0.979 | > 20 | 0.949 | > 2000 | 0.95 | > 10 | 0.889 | > 10 |  |  |  |  | 0.714 | 4600 | 0.982 | > 2000 |
| HCC1937 (breast, adherent) | 0.981 | > 4 | 0.965 | > 20 | 0.985 | > 2000 | 0.928 | > 10 | 0.908 | > 10 |  |  |  |  | 0.527 | 1200 | 0.976 | > 2000 |

Reference: the supplement of paper PMC4967469
